Data published in PubChem BioAssay AID485281 (National Center for Advancing Translational Sciences (NCATS), 2010).
In all, about 350,000 compounds went through this assay and about 260 (0.074%) were called active. Inconclusive means that the source gave no clear call. Such entries were picked first, then a sample of the others. Calls follow the shape of the dose curve; as a rule, active = well fitted inhibition curve with a large enough effect; inconclusive = small, poorly fitted or top-dose-only effect; inactive = no such curve, though single readings can be large or run the other way. Where the call is inconclusive, the potency comes from a doubtful curve fit.
Also: nearly all actives have a fitted effect of over 20% in size.
Potency is read from the fitted curve at half-maximal effect; tags tell the direction and shape of the fitted curve.

These compounds were tested against Ferritin light chain (Equus caballus) (UniProt P02791) (assay: qHTS Assay for Identification of Novel General Anesthetics). Conditions: apoferritin/1-aminoanthracene competitive binding, fluorescence; series mostly up to 77.5 µM.
Sequence of UniProt P02791 (P02791 whole entry, looked up): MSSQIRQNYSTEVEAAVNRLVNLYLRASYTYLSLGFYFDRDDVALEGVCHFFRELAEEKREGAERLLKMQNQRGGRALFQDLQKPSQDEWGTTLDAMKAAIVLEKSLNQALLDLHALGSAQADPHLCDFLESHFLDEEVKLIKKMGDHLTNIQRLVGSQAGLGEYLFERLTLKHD
Procedure, shortened: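 Probe: 1-aminoanthracene (50% saturated, PBS). Protein: horse-spleen apoferritin, 10 uM. Incubation: 10 min, room temperature. Detection: 380 nm excitation, 535 nm emission. Analysis: normalized response, four-parameter Hill.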
With `CC(=O)C1CCC2C3CCC4CC(C)(O)CCC4(C)C3CCC12C` (configuration not stated) the Potency was “inactive”. `Cc1ccc(CN2C3CCCC2CC(NC(=O)Nc2cccc(F)c2)C3)cc1` (configuration not stated) was tested, and the Potency was “inactive”. `C=CCN(CC=C)C(=O)Nc1ccc(OCC)cc1` was tested, and the Potency was inconclusive: 35.5 µM [inhibitor, partial curve]. In the case of `Cc1ccc(C2=NN(CCC(=O)N3CCC4(CC3)OCCO4)C(=O)CC2)cc1`, the Potency is reported as inconclusive: 28.2 µM [inhibitor, partial curve]. For `Fc1ccc(C2=CCN(C(c3cccs3)c3nnnn3CCc3ccccc3)CC2)cc1` (configuration not stated), the Potency was inconclusive: 35.5 µM [inhibitor, partial curve]. `COc1cccc(C2C([N+](=O)[O-])=C(N)Oc3c2c(=O)oc2ccccc32)c1` (configuration not stated) was tested, and the Potency was inconclusive: 50.1 µM [inhibitor, single point]. With `Cc1ccc(CCNC(=O)Cn2nc(C)c3c(C)n(-c4ccc(C)cc4)nc3c2=O)cc1` the Potency was inconclusive: 25.1 µM [inhibitor, partial curve]. With `O=C(O)CCn1cc(C=C2C(=O)NC(=S)NC2=O)c(-c2cc3ccccc3oc2=O)n1` the Potency was inconclusive: 31.6 µM [inhibitor, single point]. `CC1CC(OP(O)(=S)c2ccc(N(C)C)cc2NC(=O)c2cccs2)CC(C)(C)C1` (configuration not stated) was tested, and the Potency was inconclusive: 35.5 µM [inhibitor, single point]. With `CCN(CC)c1ccc(/C=C/[N+](=O)[O-])cc1` the Potency was inconclusive: 28.2 µM [inhibitor, partial curve]. With `O=C(Cn1c(=O)n(CC2CS2)c2ccccc21)N1CCCCCC1` (configuration not stated) the Potency was inconclusive: 28.2 µM [inhibitor, partial curve]. For `CC1CN=C(Nc2ccccc2)S1` (configuration not stated), the Potency was inconclusive: 31.6 µM [inhibitor, partial curve]. `Cc1ccnc(SCc2nc3ccccc3s2)n1` was tested, and the Potency was inconclusive: 25.1 µM [inhibitor, partial curve]. For `CN(C)c1ccc(P(=S)(N(C)C)N(C)C)cc1`, the Potency was inconclusive: 11.2 µM [inhibitor, partial curve]. For `CCCCCC1CC(CC(=O)NC(=S)Nc2ccc([N+](=O)[O-])cc2)C(=O)O1` (configuration not stated), the Potency was inconclusive: 25.1 µM [inhibitor, partial curve]. In the case of `O=C1NC(=O)N(c2ccccc2F)C(=O)/C1=C/c1ccc(Sc2nc3ccccc3[nH]2)o1`, the Potency is reported as inconclusive: 28.2 µM [inhibitor, single point]. In the case of `CCCCC/C(=N\O)c1c[nH]c2ccccc12`, the Potency is reported as inconclusive: 25.1 µM [inhibitor, partial curve]. `CCOc1cc2[nH]c(=O)n(CCCC(=O)N3CCN(c4cccc(Cl)c4)CC3)c(=O)c2cc1OCC` was tested, and the Potency was inconclusive: 11.2 µM [inhibitor, partial curve]. `CN(C)c1ccc(C=C2C(=O)NC(=S)NC2=O)cc1[N+](=O)[O-]` was tested, and the Potency was inconclusive: 31.6 µM [inhibitor, single point]. `CN1C(=O)CC(c2ccccc2)Nc2ccccc21` (configuration not stated) was tested, and the Potency was “inactive”. `CCOc1cccc(C2NCc3ccccc3-n3cccc32)c1O` (configuration not stated) was tested, and the Potency was inconclusive: 20 µM [inhibitor, partial curve]. For `CCOC(=O)c1ccc(N2C(=O)c3n[nH]c(-c4cccs4)c3C2c2ccc(Cl)cc2Cl)cc1` (configuration not stated), the Potency was inconclusive: 5.62 µM [inhibitor, partial curve]. In the case of `O=C1C(Cl)=C(N2CCCCCC2)C(=O)N1c1ccccc1`, the Potency is reported as inconclusive: 15.8 µM [inhibitor, partial curve]. In the case of `O=C(c1ccc2c(c1)OCO2)N1CCC2(CC1)OCCO2`, the Potency is reported as “inactive”. For `CN1C(=O)/C(=C\c2ccc(N3CCCCCC3)cc2)C(=O)NC1=S`, the Potency was “inactive”. With `COCC(C)OC(=O)c1c(N)n(Cc2ccco2)c2nc3ccccc3nc12` (configuration not stated) the Potency was “inactive”. `CCCCC/C=C\C/C=C\C/C=C\C/C=C\CCCCOC(CO)CO` was tested, and the Potency was inconclusive: 31.6 µM [inhibitor, single point]. For `CCCCOP(=O)(c1ccc(N(C)C)cc1)C(O)c1ccc(C(C)C)cc1` (configuration not stated), the Potency was inconclusive: 56.2 µM [inhibitor, single point]. With `c1ccc(OCc2ccc(CCCN3CCOCC3)cc2)cc1` the Potency was inconclusive: 28.2 µM [inhibitor, partial curve]. With `Cc1cc(OCC(=O)N2CCN(CCc3ccncc3)CC2)ccc1Cl` the Potency was “inactive”. With `CN1CCN(c2ccc([N+](=O)[O-])c(NCc3ccco3)c2)CC1` the Potency was “inactive”. In the case of `Cc1cccc(C2=NCC(=O)N(CC(=O)NCc3ccco3)c3sc4c(c32)CCCC4)c1`, the Potency is reported as inconclusive: 15.8 µM [inhibitor, partial curve]. For `CCOC(=O)C(O)(c1ccc(NC(=O)c2ccco2)c(OC)c1)C(F)(F)F` (configuration not stated), the Potency was inconclusive: 28.2 µM [inhibitor, partial curve]. `CC(=O)[C@@H]1CC[C@H]2[C@@H]3CC[C@@H]4CC(=O)CC[C@]4(C)[C@H]3CC[C@]12C` was tested, and the Potency was “inactive”. `C/C(=N\N1CCCCCC1)c1c(O)n(-c2ccc(C)cc2)c(=O)[nH]c1=O` was tested, and the Potency was inconclusive: 50.1 µM [inhibitor, single point]. `O=C(CSc1nc2c([nH]c3ccccc32)c(=O)n1-c1ccccc1)c1ccccc1` was tested, and the Potency was inconclusive: 3.98 µM [inhibitor, partial curve]. `CCOC(=O)CSc1nn(-c2ccccc2)c(=S)s1` was tested, and the Potency was inconclusive: 31.6 µM [inhibitor, single point]. `O=C1NC(=O)N(c2ccccc2)C(=O)/C1=C/c1ccc(Sc2ccccc2)o1` was tested, and the Potency was inconclusive: 12.6 µM [inhibitor, partial curve]. For `COc1ccc(/C=C2/C(=O)NC(=O)N(c3ccc(C)c(C)c3)C2=O)cc1CN1C(=O)c2ccccc2C1=O`, the Potency was inconclusive: 35.5 µM [inhibitor, partial curve]. In the case of `CC(C)c1ccc(-n2c(O)c(C=NCCN3CCNCC3)c(=O)[nH]c2=S)cc1`, the Potency is reported as “inactive”. `CC/C(=C(\c1ccc(O)cc1)c1ccc(OCCN(C)C)cc1)c1ccccc1` was tested, and the Potency was inconclusive: 31.6 µM [inhibitor, partial curve]. `CCOc1ccccc1-n1c(O)c(C=NCc2ccc3c(c2)OCO3)c(=O)[nH]c1=O` was tested, and the Potency was inconclusive: 35.5 µM [inhibitor, partial curve].
